From the supplement of paper PMC10126150
Values marked as one replicate rest on one cluster of the flow cell; about a third of the high ones do not repeat.
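Also: ATP exposure 15 min at 22 °C before imaging.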

Each sequence was assayed on ATP (assay: switch fluorescence ratio, 500 uM ATP over buffer (Cy3 cluster intensity, sum of 5 cycles each) (fold (ratio)); higher = stronger signal-on switching upon ATP binding; sequences stand for … in TCGTCGGCAGCGTCAGATGTGTATAAGAGACAGTTTTTTTTTTTTTTTTTTTTTTTTT…TC). Conditions: aptamer strand: ATP DNA aptamer (quencher-CACCTGGGGGAGTATTGCGGAGGAAGG + anchor), 100 nM annealed; ATP concentration: 500 uM; one replicate.
How it was run: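 The fluorescence ratio divides summed target-cycle Cy3 intensity by summed buffer-cycle Cy3 intensity for each cluster and is averaged per switch-domain sequence. Cy3-labelled switching-strand clusters on a modified Illumina MiSeq flow-cell were annealed to 100 nM quencher-labelled ATP aptamer, then imaged in selection buffer and again after 15 min with 500 uM ATP at 22 °C. Five such cycles were run, with NaOH stripping and re-annealing between them, and clusters outside 100-1000 RFU were excluded.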
AGCATCCTT showed a switch fluorescence ratio of 0.971. AGCATCGATC gave a switch fluorescence ratio of 1.02. With AGCATCGGGG the switch fluorescence ratio was 1.04. Sequence AGCATGAGAG has a switch fluorescence ratio of 1.04. AGCATGCGTT was tested, and the switch fluorescence ratio was 1.02. In the case of AGCATGGAGT, the switch fluorescence ratio is reported as 1.03. AGCATGGATT showed a switch fluorescence ratio of 1.02. Sequence AGCATGGGTT has a switch fluorescence ratio of 0.999. Work on AGCATTAATA yielded a switch fluorescence ratio of 1.01. AGCATTTTGT was tested, and the switch fluorescence ratio was 0.99. AGCCAAAACA showed a switch fluorescence ratio of 0.96. Sequence AGCCAACAGT has a switch fluorescence ratio of 1.03. AGCCAGAAAG showed a switch fluorescence ratio of 1.12. AGCCAGGCGT gave a switch fluorescence ratio of 1.01. AGCCCAATAG gave a switch fluorescence ratio of 2.46. Sequence AGCCCCGGGG has a switch fluorescence ratio of 1. AGCCCCTCGA showed a switch fluorescence ratio of 0.985. AGCCCGAGTA showed a switch fluorescence ratio of 0.996. Sequence AGCCCGGCTT has a switch fluorescence ratio of 0.985. In the case of AGCCCGGGGG, the switch fluorescence ratio is reported as 1.1. AGCCGACATT was tested, and the switch fluorescence ratio was 1.1. Sequence AGCCGAGAAC has a switch fluorescence ratio of 1.08. Sequence AGCCGCGTCG has a switch fluorescence ratio of 1.01. With AGCCGTGGGG the switch fluorescence ratio was 0.983. AGCCTAGGAA showed a switch fluorescence ratio of 0.984. Sequence AGCCTCGTTT has a switch fluorescence ratio of 0.989. Work on AGCCTCTTTC yielded a switch fluorescence ratio of 0.952. AGCCTTCGAT gave a switch fluorescence ratio of 1.08. For AGCCTTTTT, the switch fluorescence ratio was 1.03. AGCGAAAGTT gave a switch fluorescence ratio of 0.979. For AGCGAACGAT, the switch fluorescence ratio was 1.06. For AGCGAAGCTT, the switch fluorescence ratio was 0.952. AGCGAATGCC showed a switch fluorescence ratio of 1.05. For AGCGAATTTA, the switch fluorescence ratio was 1.02. In the case of AGCGACACGA, the switch fluorescence ratio is reported as 1.12. In the case of AGCGACCTTC, the switch fluorescence ratio is reported as 1.47. With AGCGAGGTT the switch fluorescence ratio was 1.01. AGCGATCCCC gave a switch fluorescence ratio of 2.02. Sequence AGCGATGGTA has a switch fluorescence ratio of 1.03. Work on AGCGCAAAGC yielded a switch fluorescence ratio of 1.2. With AGCGCCGTAT the switch fluorescence ratio was 1.04. In the case of AGCGCGACGT, the switch fluorescence ratio is reported as 1.01. With AGCGGATGCC the switch fluorescence ratio was 0.967. For AGCGGCAATG, the switch fluorescence ratio was 1.12. Sequence AGCGGCCCGA has a switch fluorescence ratio of 1.01. With AGCGGCCCTT the switch fluorescence ratio was 1.02. AGCGGGACAC showed a switch fluorescence ratio of 1.03. AGCGGGACCC showed a switch fluorescence ratio of 1.04. AGCGGGCATC showed a switch fluorescence ratio of 1.02. Sequence AGCGGTCAGG has a switch fluorescence ratio of 0.994. With AGCGGTCTGT the switch fluorescence ratio was 0.964. AGCGGTTGTT showed a switch fluorescence ratio of 1. Work on AGCGTAGCCG yielded a switch fluorescence ratio of 0.977. Sequence AGCGTCATCA has a switch fluorescence ratio of 0.984. AGCGTCGACA was tested, and the switch fluorescence ratio was 1.02. For AGCGTGTCTG, the switch fluorescence ratio was 1.04. Sequence AGCGTTGGAG has a switch fluorescence ratio of 1.03. For AGCTAATCGC, the switch fluorescence ratio was 1. Sequence AGCTAATGAA has a switch fluorescence ratio of 0.988. AGCTACCGCG was tested, and the switch fluorescence ratio was 0.967. Work on AGCTACGACA yielded a switch fluorescence ratio of 1.33. AGCTACGCAT gave a switch fluorescence ratio of 1.91. In the case of AGCTAGCCTC, the switch fluorescence ratio is reported as 1.02. AGCTAGTTT gave a switch fluorescence ratio of 0.941. AGCTATCGGA showed a switch fluorescence ratio of 1.02. AGCTATGCGG showed a switch fluorescence ratio of 0.93. In the case of AGCTATGGGC, the switch fluorescence ratio is reported as 1.03. With AGCTCAAGAT the switch fluorescence ratio was 0.984. Work on AGCTCCATCA yielded a switch fluorescence ratio of 1.03. AGCTCCATGG was tested, and the switch fluorescence ratio was 1.03. AGCTCGATCC showed a switch fluorescence ratio of 0.97. AGCTCTCGCG showed a switch fluorescence ratio of 0.992. Work on AGCTGACGA yielded a switch fluorescence ratio of 1.05. AGCTGAGATC was tested, and the switch fluorescence ratio was 0.987. Work on AGCTGCACTT yielded a switch fluorescence ratio of 1.01. For AGCTGCAGGA, the switch fluorescence ratio was 1.03. With AGCTGCCCGG the switch fluorescence ratio was 1.04. For AGCTGCGGAT, the switch fluorescence ratio was 1. In the case of AGCTGGACTC, the switch fluorescence ratio is reported as 1.53. Sequence AGCTGGGCAG has a switch fluorescence ratio of 1.08. In the case of AGCTGGGGAC, the switch fluorescence ratio is reported as 1.02. In the case of AGCTGGTGGT, the switch fluorescence ratio is reported as 0.998. Sequence AGCTGTCGGT has a switch fluorescence ratio of 1.01. With AGCTGTGCAT the switch fluorescence ratio was 1.23. Sequence AGCTTAACA has a switch fluorescence ratio of 1.
